From PubChem BioAssay (NCI)
Several values for one entry are separate records, joined by “and”; a condition that tells them apart may be missing. Identical values can stand only once.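 In this assay, cells in 96-well plates receive the compound at five concentrations for 48 hours. Endpoints are linearly interpolated between the surrounding concentrations. Here, GI50 denotes the concentration required for 50% inhibition of growth. TGI is the concentration that stops growth completely.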

The molecules below were run on NCI-H322M lung (assay: NCI-60 cell line screen, 48 h).
With `CC(=O)Oc1ccccc1C(=O)[Se]C(=NC1CCCCC1)NC1CCCCC1` the GI50 was 1.7 µM and the TGI was 3.17 µM.
`O=C(c1cc2cc(OCCCN3CCC3)ccc2[nH]1)N1C[C@@H](CCl)c2c1cc(OCc1ccccc1)c1ccccc21` was tested, and the GI50 was 0.36 µM and 0.256 µM and the TGI was 1.57 µM and 1.03 µM.
`CC12OOC(C)(OO1)C2CCC(=O)NCCCNc1ccnc2cc(Cl)ccc12` (stereo not drawn) was tested, and the GI50 was > 20 µM and the TGI was > 20 µM.
For `Cc1ccccc1[C@H]1C(C(=O)c2ccc(Cl)cc2)C2(N[C@@H]1c1ccccc1)C(=O)Nc1ccc(Cl)cc12` (stereo partly drawn), the GI50 was 4.9 µM and the TGI was 9.97 µM.
